The record followed here is the RNAGym collection of RNA variant scans (doi:10.7554/elife.90254).

Read counts are not given, so values of variants with three or more changes are uncertain.

To fix the notation:
B1: LINE1-mini (parent)
chain: GGCAGAGCUCAACACAGCGUGGCAAAGUGGCUGUGGCUAGACUGCC

In this data set the parent is B1. The experiment in a line: self-cleavage, relative activity (ratio to wild type); higher = more cleavage; in vitro, sequencing; the parent is a self-cleaving ribozyme.
As for GGCAGAGCUCAAAACAGCGUGGCAAAGUGGCUGAGGCUAGGCUGCC [C13A U34A A41G], the self-cleavage came to 0.01. For the variant GGCAGAGCUCAAAACAGCGUGGCAAAGAGGCUGUGGCGAGACUGCC [C13A U28A U38G], the self-cleavage was found to be 0.01.

Take GGCAGAGCUCAAAACAACGUGGCAAAGUGUCUGUGGCUAGACUGCC [C13A G17A G30U]: the self-cleavage stood at 0.04. On to GGCAGAGCUCAAAACAGCCUGGGAAAGUGGCUGUGGCUAGACUGCC [C13A G19C C23G], for which the self-cleavage amounted to 0.03. Under GGCAGAGCUCAAAACAGCGUGGCAAAGUGCCUGUGCAUAGACUGCC [C13A G30C G36C C37A] stands 0.16; under GGCAGAGCUCAAAACAGCGUGGCAAAGUGGCUAUGGCUAGACUGUC [C13A G33A C45U], 0.1; under GGCAGAGCUCAAAACAGCGUUGCCAUGUGCCUGUGGCUAGACUGCC [C13A G21U A24C A26U G30C], 0.01.

As to GGCAGAGCUCAAAACAGCGUGGCAAAGUGGCUUUGGCUAGACUGCA [C13A G33U C46A], the self-cleavage stood at 0.01. The result for GGCAGAGCUCAAAACAGCGUGGCAAACUGGCUCUGGCUAGAGUGCC [C13A G27C G33C C42G] reads 0.11; that for GGCAGAGCUCAAAACAGCAUGGCAAAGUGGCUGUGGGUAGACUGCC [C13A G19A C37G], 0.03; that for GGCAGAGCUCAAAACAGCGGGGCAAAGUGUCUGUGACUGGACUGCC [C13A U20G G30U G36A A39G], 0.01. The result for GGCAGAGCUCAAAACAGCGUGGCAAAGUGGCUCUGGCUAUACUGCA [C13A G33C G40U C46A] reads 0.02. Under GGCAGAGCUCAAAACAGCUCGGCAAAGUGGCUGUGGCUACACUGGC [C13A G19U U20C G40C C45G] stands 0.05. Consider GGCAGAGCUCAAAACAGCGUGACAAAUUGACUGUGGCUAGACUGCC [C13A G22A G27U G30A], for which the self-cleavage came out at 0.16.

Regarding GGCAGAGCUCAAAACACCGCGGCAAAGUGGCUGUGGCUAGACUGCC [C13A G17C U20C], the self-cleavage was found to be 0.01.

For GGCAGAGCUCAAAACAGCGCGGCAAACUGGCUGUCGCUAAACUGCC [C13A U20C G27C G35C G40A], the self-cleavage came out at 0.05. GGCAGAGCUCAAAACAGCGAGGCAAAGUGCCUGUGGCUGGACUGCC [C13A U20A G30C A39G]: the self-cleavage turned out to be 0.2.

With GGCAGAGCUCAAAACAGCGUAGCAAAGUGGCUGUGGAUAGACUGCC [C13A G21A C37A], the self-cleavage was 0.2. The result for GGCAGAGCUCAAAACAUCGUGGCAAAGUGGCUGUGGGUAGACUGUC [C13A G17U C37G C45U] reads 0.07; that for GGCAGAGCUCAAAACAGCGUCGCAAAGUGGCUGUGGCUAGACUACC [C13A G21C G44A], 0; that for GGCAGAGCUCAAGCCGGCGUGGCAAAGUGGCUGUGGCUAGUCUGCG [C13G A14C A16G A41U C46G], 0.02.

GGCAGAGCUCAAAACAGCGUUGCAAAGUGGCUGUGGCUAGACCGCC [C13A G21U U43C]: the self-cleavage came out at 0.

For GGCAGAGCUCAAAACAACGUGGCAAAGUGGCUGUCGCUAGACUGCC [C13A G17A G35C], the self-cleavage amounted to 0.01.

As for GGCAGAGCUCAAAACAGCGCGGCAAAGUUGCUGUGGCUAGACUGCC [C13A U20C G29U], the self-cleavage was found to be 0.06. In the case of GGCAGAGCUCAAAACAGCUUAGCAAAGUUGCUGUGGCUAGACUGCA [C13A G19U G21A G29U C46A], the self-cleavage amounted to 0.13.

Take GGCAGAGCUCAAAACAGCGUCGCAAAGUGGGUGUGUCUAAACUGCC [C13A G21C C31G G36U G40A]: the self-cleavage was determined as 0.02. The result for GGCAGAGCUCAAAACAGCGUGGCAAAGUGGCUGUGCCUAGACUUCC [C13A G36C G44U] reads 0.03. The result for GGCAGAGCUCAAAACAGCCUGGCAAAGUGGCUGUGGCUAGGCUGCC [C13A G19C A41G] reads 0.01.

Take GGCAGAGCUCAAAACAGCGUGGCAAAGUGGCUUUGGCUAUACUGCC [C13A G33U G40U]: the self-cleavage is 0.19.

On to GGCAGAGCUCAAAACACCGUGGCAAGGUGGCUGUGGCUCGACUGCC [C13A G17C A26G A39C], for which the self-cleavage is 0.01. Under GGCAGAGCUCAAAACAGCGUAGCAAAGUGGAUGUGGCUAGACUGCC [C13A G21A C31A] stands 0.03; under GGCAGAGCUCAAAACAGCUUGGCAAAGUGGGUCUGGCUAGAAUGCA [C13A G19U C31G G33C C42A C46A], 0.02; under GGCAGAGCUCAAAACAGCGUUGCAAAGAGGCUGUGGCUAGACUGCC [C13A G21U U28A], 0.09. For the variant GGCAGAGCUCAAAACAGCGUUGCAAAGCGGCUGUGGCUAGACUGCC [C13A G21U U28C], the self-cleavage was determined as 0.05. Under GGCAGAGCUCAAAACAGCUUGGCAAAGUGGCUGUGCCUAGACUGCC [C13A G19U G36C] stands 0.01; under GGCAGAGCUCAAAACAGCAUGGCUAAGUGACUGUGGCUAGACUGCC [C13A G19A A24U G30A], 0.05.

GGCAGAGCUCAAAACAGCGUGGCAAACUCGCUGUGGCUAGACUACC [C13A G27C G29C G44A]: the self-cleavage was determined as 0.02. On to GGCAGAGCUCAAAACAGCGUGGCAAAGUGGCUUUGGCAAUACUGCC [C13A G33U U38A G40U], for which the self-cleavage is 0.04. The result for GGCAGAGCUCAAAACAGCGUGGCAAACUGGCUGUGGCUAGAGUGCC [C13A G27C C42G] reads 0.1. The result for GGCAGAGCUCAAAACAGCGUGGCAAAGCGGGUGUGGCUAGACUGCG [C13A U28C C31G C46G] reads 0.05; that for GGCAGAGCUCAAAACAGCGUGAAAGAGCGGCUCUGGCUAGACUGCC [C13A G22A C23A A25G U28C G33C], 0; that for GGCAGAGCUCAAAACAGCGUGGCAAAGUGGCUGUUGCUAGACUGCA [C13A G35U C46A], 1.19. Under GGCAGAGCUCAAAACAGCGUGGCAAAGUGGCUGUGGCAAGACUACC [C13A U38A G44A] stands 0.23; under GGCAGAGCUCAAAACAGCGUUGCAAACUGGCUUUGGCUAGACUGCC [C13A G21U G27C G33U], 0.03. For the variant GGCAGAGCUCAAAACAGCGUGGCAAAGUGCCUGUGGCCAGACUACC [C13A G30C U38C G44A], the self-cleavage came to 0.1.

As to GGCAGAGCUCAAAACAGCGUUGCAAAGUGGCUGUGGCCAGACUCUU [C13A G21U U38C G44C C45U C46U], the self-cleavage was found to be 0.25. Under GGCAGAGCUCAAAACAGCGUGGCAAAGCGGCUGUGCCUAGACUGCC [C13A U28C G36C] stands 0.07; under GGCAGAGCUCAAAACAGCGCGGCAAAGUGGCUGAGCCUAGACUGCC [C13A U20C U34A G36C], 0.07. The result for GGCAGAGCUCAAAACAGCGUGCCAAAGUGGCUGUGGCUAGACUGAC [C13A G22C C45A] reads 0.08; that for GGCAGAGCUCAAAACAGCGUGGCAAAGUGGCUGCGGCUAGACUGCG [C13A U34C C46G], 0.03. The result for GGCAGAGCUCAAAACAGCGUGGCAAAGUGGCUAUGGCUAUACUGCC [C13A G33A G40U] reads 0.02; that for GGCAGAGCUCAAAACAGCGUGGCAAAGUGACUGUGGCUAGCCAGCC [C13A G30A A41C U43A], 0; that for GGCAGAGCUCAAAACAGCGUUGCAAAGUGGCUUUGGCUAGACUGCC [C13A G21U G33U], 0.05. With GGCAGAGCUCAAAACAACGGGUCAAAAUGCCUGUGGCUAGACUGCC [C13A G17A U20G G22U G27A G30C], the self-cleavage is 0.03. With GGCAGAGCUCAAAACAGCGUGUCAAAGUGGCUGUGGCUAGGCAGCC [C13A G22U A41G U43A], the self-cleavage came to 0.08. The result for GGCAGAGCUCAAAACAGCCUGAAUAAUUGGGUGUGGCUAGACUGCC [C13A G19C G22A C23A A24U G27U C31G] reads 0.01.
